According to the supplement of paper PMC3334620:
Over roughly 33,000 sequences, “E-score (-0.5 to 0.5)” has its median near -0.012; the highest 2% begin near 0.27. This is one part of the list.

Biological target: T1, Vhr1 (UniProt P40522)
T1 sequence: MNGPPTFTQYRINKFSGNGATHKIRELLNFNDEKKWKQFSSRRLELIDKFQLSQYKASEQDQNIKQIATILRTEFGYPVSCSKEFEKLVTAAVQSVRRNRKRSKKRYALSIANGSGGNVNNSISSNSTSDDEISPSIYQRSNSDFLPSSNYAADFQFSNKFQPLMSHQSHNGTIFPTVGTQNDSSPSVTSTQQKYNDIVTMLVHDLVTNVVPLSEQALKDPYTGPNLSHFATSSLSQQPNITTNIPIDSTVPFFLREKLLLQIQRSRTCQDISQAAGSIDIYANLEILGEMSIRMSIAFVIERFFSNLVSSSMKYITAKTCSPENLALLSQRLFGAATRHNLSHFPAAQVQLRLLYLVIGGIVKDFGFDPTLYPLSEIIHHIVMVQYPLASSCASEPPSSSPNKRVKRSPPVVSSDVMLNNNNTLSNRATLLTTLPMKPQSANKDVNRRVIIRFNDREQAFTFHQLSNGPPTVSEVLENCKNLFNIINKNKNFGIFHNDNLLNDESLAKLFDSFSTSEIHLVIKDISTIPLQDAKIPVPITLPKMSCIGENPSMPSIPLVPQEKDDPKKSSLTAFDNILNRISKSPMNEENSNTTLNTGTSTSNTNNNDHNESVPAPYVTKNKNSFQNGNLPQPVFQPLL
Experiment: PBM E-score (8-mer binding enrichment) (E-score (-0.5 to 0.5)); higher = stronger / more preferred TF binding; most listed sequences are background and not binding sites
Conditions: protein concentration: 200 nM; construct: GST-full length
How it was run: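 For each ungapped eight-base word taken together with its reverse complement, the Universal PBM Analysis Suite assigned an E-score. Binding data came from GST-tagged yeast transcription factors, applied at about 100-200 nM, on universal all-10-mer Agilent arrays made double-stranded by primer extension. Fluorescent anti-GST marked bound protein, and scans were normalised with masliner.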

Row | Sequence | PBM E-score
1 | ATCTGCCG | -0.0721
2 | CGGGGTAA | -0.00758
3 | CATTCGGA | 0.147
4 | CCATCCAA | 0.0377
5 | ACAATTTC | -0.134
6 | CACAGAGG | -0.0112
7 | GGACCTAC | -0.133
8 | ACACTTCG | 0.0579
9 | CCTGGCCG | -0.0441
10 | AAATTTCT | -0.455
11 | CCTATGCA | -0.0709
12 | CTCGTGAC | 0.273
13 | ACGACCAA | -0.0835
14 | AATTTAAA | -0.144
15 | GCTTGGAA | -0.238
16 | AGGTAATG | -0.0593
17 | AGAGGCAA | -0.133
18 | GAGCAATC | -0.0368
19 | GGAGGCCA | -0.159
20 | ACCTTCTA | -0.168
21 | GCCCCATA | -0.0566
22 | ACACGTAC | -0.0503
23 | CAACGGTC | -0.0951
24 | AGAGGCGA | -0.332
25 | CACCTACC | -0.125

Row | Sequence | PBM E-score
26 | CAGAAAAA | -0.174
27 | CGGGTTTA | 0.127
28 | AGCGGGGA | -0.0182
29 | ACACCGCT | 0.0169
30 | CATTCTAG | -0.089
31 | ATCTCGAG | 0.0581
32 | GGGCTAAA | -0.221
33 | GCTAGGAA | -0.0746
34 | CCTACGCG | -0.0405
35 | AGTGCTCG | 0.0359
36 | CCAACAGA | -0.0653
37 | ATTAAGGG | -0.151
38 | GACACCGC | 0.0715
39 | CCGCAGAC | -0.024
40 | CGTTTTTC | -0.141
41 | ATAAGTAC | -0.0774
42 | ACAGAGGC | -0.214
43 | CCAAGGCG | -0.0453
44 | AATTAGGA | -0.0499
45 | AATTTTTA | -0.119
46 | AACACCCG | 0.151
47 | ACACCGCA | 0.232
48 | CCCGCAAG | -0.139
49 | TGAGTGCA | 0.111
50 | AAGAAGGA | -0.126

Row | Sequence | PBM E-score
51 | GAGTCAAC | 0.403
52 | AAGGATAT | 0.0955
53 | GCAATTGA | -0.0856
54 | TCATCCAA | 0.138
55 | AATGAACT | -0.123
56 | CTGTTAGC | -0.131
57 | GCGGGAGA | -0.0498
58 | CGTGTTTA | -0.0707
59 | CGCGGACA | -0.0134
60 | CGCTTTAC | -0.148
61 | AACGGGGA | 0.0181
62 | GCCAAGGA | -0.151
63 | GCCTGCGA | -0.00738
64 | CAATCACC | 0.238
65 | AAGATGAC | 0.0814
66 | AGATTGAG | 0.0189
67 | GGAAGTGA | 0.0662
68 | CGCGCGCC | 0.228
69 | CAAAACGC | 0.0176
70 | ACTAAATC | 0.139
71 | CAGTATAG | 0.104
72 | AAAGATGA | -0.086
73 | CACACGGC | -0.00572
74 | GATCGCCA | 0.0308
75 | TGTCGGAA | 0.0453

Row | Sequence | PBM E-score
76 | GACCGGAA | -0.086
77 | CATCCATG | 0.186
78 | GGGAAACA | -0.0283
79 | CCGAACGA | 0.12
80 | AGCCCGCG | 0.153
81 | ATTTTTTA | -0.229
82 | AATGTATG | 0.0796
83 | CCAGCCCA | 0.111
84 | CCTGAGGC | -0.096
85 | CAAACGAC | 0.194
86 | AAAGCGTG | 0.11
87 | AGGGCGAA | -0.127
88 | CTTCGACA | -0.0949
89 | AGAACGAT | -0.0492
90 | ACTAGTAG | 0.00335
91 | ATGCGCAC | -0.0465
92 | CACTCTTA | -0.0396
93 | GACACCTC | 0.0308
94 | GCGTGTCA | 0.107
95 | GCCCGGGC | 0.0736
96 | ACTCCAGA | 0.0505
97 | CTTGAAAC | 0.0278
98 | ACCCGTCT | -0.0562
99 | ACGGAGAG | -0.102
100 | TCCTCACA | 0.00996

Row | Sequence | PBM E-score
101 | TACTAAAA | -0.135
102 | GAGAGTGA | 0.0843
103 | AAATGTCA | -0.0774
104 | CGGAATAC | -0.00767
105 | ACACTCTA | 0.067
106 | AGGTCTCA | 0.112
107 | ATCGTACA | -0.00558
108 | CATCCTAG | 0.00502
109 | AGGAAGAG | -0.15
110 | CGGTTGAG | 0.22
111 | GAGTCGCC | 0.424
112 | ACTATTCC | 0.134
113 | ATGTGCGG | 0.203
114 | GGTACTGA | 0.144
115 | CGATTTAG | -0.0352
116 | GGCACTAC | -0.159
117 | AAGTCGGT | -0.166
118 | GCGCTAAA | -0.142
119 | GTTCGTTA | 0.0241
120 | AGAACACG | -0.0678
121 | AACGCGTA | -0.154
122 | GGCCGAGA | -0.0709
123 | TGCTGGAA | -0.154
124 | ACCTTGCC | -0.00894
125 | ACGCCAAC | -0.17

Row | Sequence | PBM E-score
126 | GGCGTTGA | -0.163
127 | CAACACAG | 0.139
128 | GTTACTGA | 0.00258
129 | CATGCAGA | 0.0528
130 | AATCGTAT | 0.169
131 | CTAGGCTA | -0.136
132 | AGCGGCAC | -0.043
133 | AGGTGTAG | -0.0292
134 | CGCGTTTC | -0.087
135 | AGCGGTGC | -0.0768
136 | GATATTAC | 0.18
137 | GTCTGGGA | -0.123
138 | AAATAGAA | -0.154
139 | CCCTTGGC | -0.237
140 | AAATATTC | -0.0235
141 | GGGTAACC | 0.0583
142 | CGAGTAAA | -0.0983
143 | CCAGAGTC | 0.222
144 | GTAACGCA | -0.0119
145 | ACACGGGT | 0.161
146 | ATTCAGTA | 0.0937
147 | ATGTCTTA | -0.00805
148 | CCAGCTAA | -0.0677
149 | CGAACGGA | 0.213
150 | CACATGAC | 0.272

Row | Sequence | PBM E-score
151 | AATAATGT | 0.0585
152 | AAAAGCTG | -0.171
153 | ACAAACAT | 0.13
154 | TCCCAAGA | -0.088
155 | GTAATGCA | -0.162
156 | GACCGGCA | 0.0411
157 | GTGATGAA | -0.0246
158 | ACCTACAC | -0.0148
159 | GACATGGC | -0.0383
160 | CATACCCG | 0.177
161 | GGAATCAA | 0.154
162 | ACACGCCC | 0.133
163 | CCAAGTGC | -0.217
164 | GACCCGGA | -0.0423
165 | ATAGTGAA | -0.0787
166 | CCCGAGCA | 0.0308
167 | CGGACAAC | 0.16
168 | GAGTACAA | 0.166
169 | GCAAGTGA | -0.129
170 | TAGGACAA | -0.201
171 | AGGTTACA | -0.0607
172 | GCTGTTCA | -0.0249
